Values quoted from earlier work as cited in PMC9411691, “Protein-Ligand Identification and In Vitro Inhibitory Effects of Cathine on 11 Major Human Drug Metabolizing Cytochrome P450s” (International Journal of Toxicology, 2022).
Where a name gives a salt, the structure may show the parent alone.

Legend:
[1] = cited from earlier work
CYP2C9 = CYP2C9 (Homo sapiens, UniProt P11712); conditions: earlier study of the authors; cited from earlier work
[2] = human, ref https://www.emcdda.europa.eu/publications/drug-profiles/khat

UniProt P11712, sequence (P11712 whole entry): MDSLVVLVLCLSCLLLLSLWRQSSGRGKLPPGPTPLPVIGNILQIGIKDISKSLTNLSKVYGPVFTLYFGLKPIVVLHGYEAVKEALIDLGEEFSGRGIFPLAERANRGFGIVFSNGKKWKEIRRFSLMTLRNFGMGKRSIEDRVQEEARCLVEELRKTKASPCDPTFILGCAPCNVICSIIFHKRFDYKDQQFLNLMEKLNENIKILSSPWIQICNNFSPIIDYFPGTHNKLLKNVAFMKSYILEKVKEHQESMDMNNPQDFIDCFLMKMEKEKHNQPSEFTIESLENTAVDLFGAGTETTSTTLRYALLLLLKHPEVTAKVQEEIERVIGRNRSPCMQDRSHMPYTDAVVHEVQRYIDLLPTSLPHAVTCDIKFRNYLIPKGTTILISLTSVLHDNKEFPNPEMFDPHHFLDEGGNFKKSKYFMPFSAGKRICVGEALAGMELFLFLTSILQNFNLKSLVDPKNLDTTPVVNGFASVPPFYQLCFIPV

| SMILES | serum concentration relative to cathinone ([1]; case report, khat chewer with haemorrhagic stroke) [fold] | time at which maximal plasma concentrations are reached ([1]; human plasma, khat chewing) [h] | detectable in the urine after ingestion, up to ([1]; human urine) [h] | detectable in urine samples after ingestion ([1]; human urine) [days] | fraction absorbed in the mucosa of the oral cavity ([1]; human, khat chewing) [%] | mean residence time (MRT) ([1]; human, khat chewing) [h] | elimination half-life [1, 2] [h] | inhibition of CYP2C9 in vitro, in words (CYP2C9) | excreted in the urine [1, 2] [%] |
| --- | --- | --- | --- | --- | --- | --- | --- | --- | --- |
| C[C@H](N)[C@@H](O)c1ccccc1 [Cathine, (1 S, 2 S)-2-amino-1-phenylpropan-1-ol.hydrochloride] | 100 | 2.6 | 50 to 70 | ≥ 3 | 84 ± 6 | 10.2 ± 2.6 | 5.2 ± 3.4 | – | – |
| C[C@H](N)C(=O)c1ccccc1 [cathinone] | – | – | 22 to 26 | – | – | – | 1.5 ± 0.8 | negligible inhibition | 2 |
